# Test results as given in the supplement of paper PMC8728848.
# This is one part of the list.
# B1: Epa1-NP-mutant-Y228A (Candida glabrata), Q6VBJ0 (protein)
# chain: MILNPALFLNKCVCIYTTLILLLLTNGGYATSSNDISLASKDPTTFPLGCSPDITTPKKGLSMELYSYDFRKKGSYPCWDAAYLDPNYPRTGYKSHRLLAKVDGVTGNINFYYHATKGCTPQLGHLPASYNYPKPLTMTNFTMLLYGYFRPKVTGFHTFTISADDLLFVNFGAGNAFDCCRRDSSADHFGNYQAYAIWGSKTAKDELTVHLDAGVYYPIRLFYNNREADGALSFTFKTESNENTVSDFSEYFFSLDDTEEGCPGLISYDSSCASVKTSKIIGIDYHTETPNENLVPITKTIYHLGIPCTGTTTTPLCGSGFYDPLANKCVTINTSSTSSVTKTTSHTTSKEVSFHSSISSQKTLIPKSIPSPYGPIKSQSIPTEMETSSEISSSEYAFSDVISTPSHSPYTKKHSSLNSSSYTSTVIHSLTSYSISQGIFSTSLSEQNITSKSSTDKFSTATSMSNNITQSSIIISQFSTNNENYTTTSMHTSSDKISTETLNNSISTTTSILFSNSSTILKNNTTIISSDKDTHYHPVNPTIVCSTNKTEIICASITQPSISNSNNHWSSSVLKFNSTTVRSTLPSSAGSNETSINVPFSSSTESNTSTSSTSTSNSKMVRSTLPSSAGSNETSISVPFSSSTESNTSTSSTSTSNSKMVRSTLPSSAGSNETSINVPFSSSTESNTSTSSTSTSNSKTVRSTPFSSAGIIMTSLSQRNNKSASSYASSNSKCYNTADSCRKVHSTPSYLLTSSYTSEGVDYDCSLVSTKLKINDTNCVNNKHTTKSCLKTSVTTTIPTLEIKTARKSSSNTIGLHSYPTSSPNKSISSAPIIGYISSFKTIKTASPSYQTSDLTTITTITSLNNPGSTAVENTHESNDKSRKTSSNDISSKHSVIKETKDAVESSNKSHQTNTLKCSSIIIASSSHNSYESLGGTTLTLTLSKVYSPQNNDTLPFLEISEVNPSRTVLPESSKMMQYLTSTEERNKTARNTIATNIVSISTFHFEGEGNAIRMGYTQLLLMLIGIIVMNIGT
# Assays:
# Assay in all cases: glycan array binding signal (z-score within array); higher = stronger binding
# Settings in all cases: glycan notation: IUPAC condensed, linker removed; mutation: Y228A
# GalNAc(b1-4)GlcNAc = target: GalNAc(b1-4)GlcNAc
# Summary of the method: (§1)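 Glycan array data came from 3228 arrays in the Consortium for Functional Glycomics database, and only arrays with an available protein sequence were kept. Glycan names were put into IUPAC-condensed notation, and columns mapping to the same glycan were averaged. The binding signal is a within-array Z-score, averaged across arrays of one protein sequence run at different concentrations or buffers and across linkers. A negative Z-score can be read as non-binding.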
# [1] = target: GalNAc(b1-4)GlcNAc(b1-2)Man
# Summary of the method: as §1
# [2] = target: GalNAc(b1-4)GlcNAc(b1-2)Man(a1-3)[GalNAc(b1-4)GlcNAc(b1-2)Man(a1-6)]Man(b1-4)GlcNAc(b1-4)GlcNAc
# Summary of the method: as §1
# [3] = target: GalNAc(b1-4)GlcNAc(b1-3)GalNAc(b1-4)GlcNAc
# Summary of the method: as §1
# GalNAc(b1-4)GlcNAc6S = target: GalNAc(b1-4)GlcNAc6S
# Summary of the method: as §1
# GalNAc(b1-6)GalNAc = target: GalNAc(b1-6)GalNAc
# Summary of the method: as §1
# GalNAc3S(b1-4)GlcNAc = target: GalNAc3S(b1-4)GlcNAc
# Summary of the method: as §1
# GalNAc3S(b1-4)GlcNAc3S = target: GalNAc3S(b1-4)GlcNAc3S
# Summary of the method: as §1
# [4] = target: GalNAc3S(b1-4)[Fuc(a1-3)]GlcNAc
# Summary of the method: as §1
# GalNAc4S6S(b1-4)GlcNAc = target: GalNAc4S6S(b1-4)GlcNAc
# Summary of the method: as §1
# GalNAc6S(b1-4)GlcNAc = target: GalNAc6S(b1-4)GlcNAc
# Summary of the method: as §1
# Glc(a1-4)Glc = target: Glc(a1-4)Glc
# Summary of the method: as §1
# [5] = target: Glc(a1-4)Glc(a1-4)Glc(a1-4)Glc
# Summary of the method: as §1
# Glc(a1-6)Glc(a1-6)Glc = target: Glc(a1-6)Glc(a1-6)Glc
# Summary of the method: as §1
# [6] = target: Glc(a1-6)Glc(a1-6)Glc(a1-6)Glc
# Summary of the method: as §1
# Glc(b1-4)Glc = target: Glc(b1-4)Glc
# Summary of the method: as §1
# Glc(b1-6)Glc = target: Glc(b1-6)Glc
# Summary of the method: as §1
# GlcA(b1-3)Gal = target: GlcA(b1-3)Gal
# Summary of the method: as §1
# GlcA(b1-3)GlcNAc = target: GlcA(b1-3)GlcNAc
# Summary of the method: as §1
# GlcA(b1-6)Gal = target: GlcA(b1-6)Gal
# Summary of the method: as §1
# [7] = target: GlcA3S(b1-3)Gal(b1-4)GlcNAc(b1-2)Man
# Summary of the method: as §1
# [8] = target: GlcA3S(b1-3)Gal(b1-4)GlcNAc(b1-3)Gal(b1-4)Glc
# Summary of the method: as §1
# [9] = target: GlcNAc(a1-3)Gal(b1-4)GlcNAc
# Summary of the method: as §1
# [10] = target: GlcNAc(a1-4)Gal(b1-3)GlcNAc
# Summary of the method: as §1
# [11] = target: GlcNAc(a1-4)Gal(b1-4)GalNAc
# Summary of the method: as §1
# [12] = target: GlcNAc(a1-4)Gal(b1-4)GlcNAc
# Summary of the method: as §1
# [13] = target: GlcNAc(a1-4)Gal(b1-4)GlcNAc(b1-3)Gal(b1-4)Glc
# Summary of the method: as §1
# [14] = target: GlcNAc(a1-4)Gal(b1-4)GlcNAc(b1-3)Gal(b1-4)GlcNAc
# Summary of the method: as §1
# [15] = target: GlcNAc(a1-4)Gal(b1-4)GlcNAc(b1-3)Gal(b1-4)GlcNAc(b1-3)Gal(b1-4)GlcNAc
# Summary of the method: as §1
# [16] = target: GlcNAc(a1-4)Gal(b1-4)GlcNAc(b1-3)Gal(b1-4)[Fuc(a1-3)]GlcNAc(b1-3)Gal(b1-4)[Fuc(a1-3)]GlcNAc
# Summary of the method: as §1
binder,measurement,setting,value
B1,glycan array binding signal (z-score),GalNAc(b1-4)GlcNAc,0
same,glycan array binding signal (z-score),[1],-0.269
same,glycan array binding signal (z-score),[2],-0.198
same,glycan array binding signal (z-score),[3],-0.27
same,glycan array binding signal (z-score),GalNAc(b1-4)GlcNAc6S,-0.155
same,glycan array binding signal (z-score),GalNAc(b1-6)GalNAc,-0.301
same,glycan array binding signal (z-score),GalNAc3S(b1-4)GlcNAc,-0.321
same,glycan array binding signal (z-score),GalNAc3S(b1-4)GlcNAc3S,-0.153
same,glycan array binding signal (z-score),[4],-0.154
same,glycan array binding signal (z-score),GalNAc4S6S(b1-4)GlcNAc,-0.147
same,glycan array binding signal (z-score),GalNAc6S(b1-4)GlcNAc,-0.21
same,glycan array binding signal (z-score),Glc(a1-4)Glc,-0.148
same,glycan array binding signal (z-score),[5],-0.123
same,glycan array binding signal (z-score),Glc(a1-6)Glc(a1-6)Glc,-0.262
same,glycan array binding signal (z-score),[6],-0.319
same,glycan array binding signal (z-score),Glc(b1-4)Glc,-0.246
same,glycan array binding signal (z-score),Glc(b1-6)Glc,-0.317
same,glycan array binding signal (z-score),GlcA(b1-3)Gal,-0.162
same,glycan array binding signal (z-score),GlcA(b1-3)GlcNAc,-0.182
same,glycan array binding signal (z-score),GlcA(b1-6)Gal,1.13
same,glycan array binding signal (z-score),[7],-0.24
same,glycan array binding signal (z-score),[8],-0.272
same,glycan array binding signal (z-score),[9],-0.329
same,glycan array binding signal (z-score),[10],-0.129
same,glycan array binding signal (z-score),[11],-0.02
same,glycan array binding signal (z-score),[12],-0.296
same,glycan array binding signal (z-score),[13],-0.065
same,glycan array binding signal (z-score),[14],-0.202
same,glycan array binding signal (z-score),[15],-0.134
same,glycan array binding signal (z-score),[16],-0.13
